Hit rate of the full screen: of about 310,000 compounds, about 14,000 (4.5%) showed an effect of 50% or more. The effect is printed as a negative number. The list shows a part of the results.
The compounds below were run against human ether-à-go-go-related gene (hERG) potassium channel (human, UniProt Q12809) (assay: primary screen, population patch clamp on CHO cells stably expressing hERG).
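Further: peak tail current of the secondary pulse compared with the same well before compound.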

Chain of human ether-à-go-go-related gene (hERG) potassium channel (Q12809 whole entry, looked up): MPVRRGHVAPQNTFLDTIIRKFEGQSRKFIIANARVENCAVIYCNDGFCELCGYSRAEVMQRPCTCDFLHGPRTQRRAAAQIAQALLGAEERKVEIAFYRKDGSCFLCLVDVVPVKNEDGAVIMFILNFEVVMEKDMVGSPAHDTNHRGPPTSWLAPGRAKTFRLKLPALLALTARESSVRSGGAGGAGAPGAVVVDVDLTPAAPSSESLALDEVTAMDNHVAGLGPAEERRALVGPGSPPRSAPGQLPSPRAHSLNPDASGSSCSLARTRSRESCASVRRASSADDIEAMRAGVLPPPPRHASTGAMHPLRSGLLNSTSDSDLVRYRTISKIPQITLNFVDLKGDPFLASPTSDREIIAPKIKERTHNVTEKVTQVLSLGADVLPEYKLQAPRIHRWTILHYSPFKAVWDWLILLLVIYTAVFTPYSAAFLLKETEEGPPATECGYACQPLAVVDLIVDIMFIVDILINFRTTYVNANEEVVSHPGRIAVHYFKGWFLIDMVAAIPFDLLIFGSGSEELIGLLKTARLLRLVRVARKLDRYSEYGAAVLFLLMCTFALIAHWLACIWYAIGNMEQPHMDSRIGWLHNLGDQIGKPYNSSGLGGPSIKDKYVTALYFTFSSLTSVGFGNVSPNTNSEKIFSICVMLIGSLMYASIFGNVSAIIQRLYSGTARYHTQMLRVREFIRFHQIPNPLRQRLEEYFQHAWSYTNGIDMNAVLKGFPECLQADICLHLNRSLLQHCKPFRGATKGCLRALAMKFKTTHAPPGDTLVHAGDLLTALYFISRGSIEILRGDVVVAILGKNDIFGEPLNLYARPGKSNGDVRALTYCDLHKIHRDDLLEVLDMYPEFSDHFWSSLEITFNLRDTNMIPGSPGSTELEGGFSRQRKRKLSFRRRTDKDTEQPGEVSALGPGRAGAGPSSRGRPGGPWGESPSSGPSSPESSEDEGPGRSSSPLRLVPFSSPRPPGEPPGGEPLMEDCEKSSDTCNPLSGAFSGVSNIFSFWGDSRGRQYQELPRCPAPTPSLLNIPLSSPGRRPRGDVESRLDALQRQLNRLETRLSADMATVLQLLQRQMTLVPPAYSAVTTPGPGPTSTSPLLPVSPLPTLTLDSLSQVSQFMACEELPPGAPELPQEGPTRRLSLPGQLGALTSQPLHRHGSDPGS

| Compound | hERG current change (%, negative = inhibition) at 10uM [%] |
| --- | --- |
| Cc1onc(C(=O)NN)c1-c1csc(COc2ccc(Cl)cc2)n1 | -15.1 |
| COc1cccc(OCCn2cc(C=O)c3ccccc32)c1 | 15.2 |
| CCOc1ccc(CCNC(=O)C(CCC(N)=O)NC(=O)OCc2ccccc2)cc1OCC (centres unmarked) | 8.5 |
| COc1ccc(-c2cc(C(=O)N3CCc4ccccc4C3)no2)cc1OC | -9.63 |
| O=C(COc1ccc(Cl)cc1Cl)OCn1nnc2ccccc2c1=O | 16.8 |
| CCC(=O)Nc1ccc(NC(=S)NC(=O)/C=C/c2ccccc2)cc1 | 11.1 |
| COc1ccc(NC(=O)CN(C)C(=O)c2c(C)nn(Cc3ccccc3)c2C)cc1 | 0.0577 |
| COC(=O)CSc1nc2ccccc2c(=O)n1Cc1ccccc1 | -6.98 |
| O=C(CCC(=O)N1CCOc2ccccc21)Nc1ccccc1Br | -27.9 |
| CC1Cc2cc(S(=O)(=O)NCCC(=O)N(C)Cc3ccccc3)ccc2N1C(=O)C1CC1 (centres unmarked) | -9.73 |
| Cc1onc(C(=O)NN)c1C(=O)N1CCN(C(c2ccccc2)c2ccccc2)CC1 | 9.34 |
| CCCn1c(SCC(=O)OCC)nc(C(F)(F)F)cc1=O | 0.311 |
| O=C(COc1ccccc1Br)NCc1ccco1 | -18.5 |
| Cc1ccc(OCC(=O)c2cc(C)n(Cc3ccco3)c2C)c([N+](=O)[O-])n1 | 0.256 |
| CCOc1ccc(N/C(=C(/C(Cl)=C(Cl)Cl)[N+](=O)[O-])n2cncn2)cc1 | -13.7 |
| Cn1c(CNC(=O)C(Cc2ccccc2)NC(=O)c2ccccc2F)cc(=O)n(C)c1=O (centres unmarked) | 3.58 |
| Nc1cc2c(cc1[N+](=O)[O-])OCO2 | 18.6 |
| CC[C@]1(c2ccccc2OC)ON(c2ccccc2C(F)(F)F)C1=O | 20.3 |
| Cc1sc2ncnc(OCC(=O)N3CC(=O)Nc4ccccc43)c2c1C | -1.93 |
| Cc1csc(SCc2c(C(=O)O)oc3ccccc23)n1 | 20.2 |
| CCOC(=O)c1c(NC(=O)COC(=O)c2ccccn2)sc2c1CCC2 | -0.64 |
| OC(COCc1cccs1)CN1CCN(c2ccccc2Cl)CC1 (centres unmarked) | -71 |

| Compound | hERG current change (%, negative = inhibition) at 10uM [%] |
| --- | --- |
| CC(=O)c1ccc2c(c1)OCCOCCOc1ccccc1OCCOCCO2 | -74.4 |
| Cc1cccc(C(=O)Nc2ccc3c(c2)ncn3C)c1 | 7.95 |
| Cc1ccccc1-n1nc2c(c1NC(=O)c1cc3ccccc3oc1=O)CS(=O)(=O)C2 | -6.93 |
| CC(=O)N1CC(C)Sc2ccc(S(=O)(=O)NCc3ccccc3Cl)cc21 (centres unmarked) | -8.78 |
| C[C@@H]1CC[C@@]2(OC1)O[C@H]1C[C@H]3[C@@H]4CC=C5C[C@@H](O)[C@H](O)C[C@]5(C)C4CC[C@]3(C)[C@H]1[C@@H]2C (some centres unmarked) | 25.7 |
| CC(C)(C)c1cccc(/C=N/O)c1O | -6.27 |
| CC1(C(=O)NC(=S)NNC(=O)c2ccncc2)CCCCC1 | 11 |
| CCOC(=O)c1c(-c2cccs2)csc1NC(=O)C(C)(C)C | 4.02 |
| COc1ccc(Cl)cc1N1C(=O)/C(=C\c2sccc2C)N=C1SCC(=O)NC1CC1 | 2.84 |
| O=C(CNC(=O)c1ccncc1)N/N=C/c1ccc(O)cc1O | 20.5 |
| CCOC(=O)c1ccc(Nc2cnc3ccccc3n2)cc1 | 11.4 |
| C=C1CC[C@H](O)C/C1=C/C=C1\CCC[C@]2(C)[C@@H]([C@H](C)/C=C/[C@H](C)C(C)C)CC[C@@H]12 | -1.53 |
| COc1ccc(NCc2nnc(SCC(=O)Nc3cccc(C)c3)o2)cc1 | 6.42 |
| Cc1nnc(NC(=O)C2CCCN2S(=O)(=O)c2ccc(Cl)cc2)s1 (centres unmarked) | -23.8 |
| O=c1[nH]c(NCCCO)nc2c1C1(CCCC1)Cc1ccccc1-2 | -7.54 |
| CC1CCCCN1C(=O)CSc1nnc(-c2ccc(Cl)s2)o1 (centres unmarked) | -33.8 |
| CC(OC(=O)c1snc(C(=O)NC2CCCCC2)c1N)C(=O)NC(C)(C)C (centres unmarked) | 1.54 |
| O=C(COC(=O)c1ccc(S(=O)(=O)C(F)F)cc1)Nc1ccccc1C(=O)NC1CC1 | 11.5 |
| Cc1cc(NC(=O)Nc2cc(C)nn2-c2ccccc2)n(-c2ccccc2)n1 | -5 |
| CCC(C)(C)n1nnnc1C(c1cc2cccc(C)c2[nH]c1=O)N1CCN(C(=O)c2ccco2)CC1 (centres unmarked) | -21.5 |
| N#CC1=C(N)C2=CCCC[C@H]2[C@H](c2cccc(F)c2)C1(C#N)C#N | -9.57 |
| O=C(COC(=O)CCCN=C1NS(=O)(=O)c2ccccc21)NC(=O)NC1CCCC1 | 18.3 |

| Compound | hERG current change (%, negative = inhibition) at 10uM [%] |
| --- | --- |
| COc1ccccc1NS(=O)(=O)c1cccc(C(=O)NCC(c2ccco2)N2CCCCC2)c1 (centres unmarked) | -23.4 |
| Cc1ccc(-c2ccccc2NC(=O)C2C3C=CC(C3)C2C(=O)O)o1 (centres unmarked) | -4.9 |
| O=S(=O)(CCSc1nc2ccccc2o1)c1nc2ccccc2s1 | -5.57 |
| C=CCNC(=O)COc1c(C)ccc(C)c1C | 0.626 |
| CC1CCc2c(C(=O)NCc3ccccn3)csc2C1 (centres unmarked) | 3.13 |
| CC(C)C[C@H](NC(=O)C1CCN(S(=O)(=O)c2ccccc2)CC1)C(=O)NCc1cccnc1 | -2.56 |
| COc1ccc(NC(=O)CCNC(=O)Cn2cnc3ccccc3c2=O)c(OC)c1 | -5.59 |
| Cc1cc(S(=O)(=O)N2CCCC(N(C)CCc3ccccn3)C2)c(C)cc1Cl (centres unmarked) | -71.6 |
| COc1ccc(CCNC(=O)CCCCCN2C(=O)c3ccccc3C2=O)cc1 | -28.6 |
| COC(=O)c1cc(NC(=O)c2c(-c3ccccc3)noc2C)ccc1N1CCOCC1 | -6.24 |
| Cc1ccc2c(c1)c1c3n2CCN(CC#N)C3CCC1 (centres unmarked) | 2.24 |
| Cc1ccccc1CSc1nsc(N)n1 | -10.5 |
| C=CCn1c(=NC(=O)c2cc(Cl)sc2Cl)sc2cc(S(N)(=O)=O)ccc21 | 18.6 |
| COc1ccc(C2(C(=O)Nc3cc(C)on3)CCOCC2)cc1 | -6.79 |
| COc1ccc(CCNC(=O)/C(C#N)=C/c2ccc(OCC(=O)NCC3CCCO3)cc2)cc1OC (centres unmarked) | 11.7 |
| C/C(=N/NC(=O)C1COc2ccccc2O1)c1ccc(Br)s1 (centres unmarked) | 7.54 |
| CCc1ccc(C(=O)CN2C(=O)NC(C)(CCc3ccccc3)C2=O)cc1 (centres unmarked) | -7.68 |
| Cc1ccc(NC(=O)N2CCCC2C(=O)Nc2nnc(C(C)C)s2)cc1 (centres unmarked) | 9.77 |
| COc1ccc(S(=O)(=O)N2CCOCC2)cc1NC(=O)CN1CCN(C)CC1 | -0.248 |
| COCCn1nnnc1CN1CCC(Cc2ccccc2)CC1.Cl | -3.18 |
| O=C(CCN1C(=O)/C(=C\c2ccccc2)SC1=S)Nc1ccc(C(=O)O)cc1 | 15.6 |
| COc1ccc(NCC(=O)N/N=C/C(C)c2ccccc2)cc1 (centres unmarked) | 0.596 |

| Compound | hERG current change (%, negative = inhibition) at 10uM [%] |
| --- | --- |
| O=S(=O)(c1ccc(Br)cc1)N1CCN(c2ccccc2)CC1 | 12.2 |
| CCCc1nc2ccccc2c(=O)n1/N=C/c1ccc(O)c(O)c1 | -0.0772 |
| CN(C)CCCn1c(=S)[nH]c2ccccc2c1=O | -7.26 |
| CC1O[C@@H]2O[C@](O[C@H](C)CC[C@@H](C)O)(c3ccccc3)O[C@@H]2C[C@H]1O (some centres unmarked) | 13.4 |
| CCS(=O)(=O)NCC(c1cccnc1)N1CCN(c2ccc(F)cc2)CC1 (centres unmarked) | -7.91 |
| Cc1cc(-c2cc(-c3ccc(Cl)cc3)on2)nc(NCC2CC2)n1 | -8.14 |
| COc1ccc(C(=O)CC(=O)C(=O)Nc2ccc(OC)c(Cl)c2)cc1 | 12.9 |
| CCOC(=O)N1CCC(NC(=O)CNS(=O)(=O)c2ccc(Br)s2)CC1 | 1.87 |
| Cc1ccc(OCCCCNC2CCCC(C)C2C)c(C)c1.O=C(O)C(=O)O (centres unmarked) | -56.9 |
| CCCCc1ccc(NC(=O)CN2NS(=O)(=O)c3ccccc3C2=O)cc1 | 8.24 |
| CCOc1ccc2oc(C(=O)OC(C(=O)NC(N)=O)C(C)C)c(C)c2c1 (centres unmarked) | 8.24 |
| Nc1nnc(SCC(=O)c2ccco2)s1 | -6.2 |
| CCN1CCN(c2cc(C)c3cc(NC(=O)CCC(=O)N4CCN(c5ccccc5OC)CC4)ccc3n2)CC1 | 7.3 |
| CCOC(=O)C1(Cc2ccccc2)CCCN(Cc2ccccn2)C1 (centres unmarked) | -20.7 |
| Cl.N[C@@H](Cc1ccccc1)c1nnc(SCc2ccccc2F)o1 | 10.7 |
| CN1CCN(C(=O)c2cnn(-c3ccccc3)c2NC(=O)c2ccc([N+](=O)[O-])cc2)CC1 | -51.6 |
| O=c1c2ccccc2nc2n1CCCS2 | -3.61 |
| Cc1ccc(-c2nnc(/C=C/c3ccccc3)o2)cc1 | -0.573 |
| CCOC(=O)c1nnn(-c2nonc2N)c1CSc1ccc(C)cc1 | -31.2 |
| COC(=O)c1c(NC(=O)CSc2nccn2C)sc(C)c1C | -15.8 |
